Reference: PubChem BioAssay AID1460 (National Center for Advancing Translational Sciences (NCATS), 2008)
“And” between values parts separate entries of the source, which are not always exact repeats. Equal values may be shown once. Screen size: about 270,000 compounds; about 5,800 (2.1%) were called active. The inconclusive results got no clear call from the source; some entries with a clear call stand among them for comparison. Calls follow the shape of the dose curve; as a rule, active = well fitted inhibition curve with a large enough effect; inconclusive = small, poorly fitted or top-dose-only effect; inactive = flat fitted curve, though single readings scatter. Potencies of inconclusive entries are doubtful fits and often do not repeat.

What follows are molecules tested against Microtubule-associated protein tau (Homo sapiens) (UniProt P10636) (assay: qHTS for Inhibitors of Tau Fibril Formation, Thioflavin T Binding). Conditions: recombinant tau K18 P301L, heparin-induced fibrillization, ThT fluorescence; series mostly up to 57.4 µM.
Sequence of UniProt P10636 (P10636 whole entry, looked up): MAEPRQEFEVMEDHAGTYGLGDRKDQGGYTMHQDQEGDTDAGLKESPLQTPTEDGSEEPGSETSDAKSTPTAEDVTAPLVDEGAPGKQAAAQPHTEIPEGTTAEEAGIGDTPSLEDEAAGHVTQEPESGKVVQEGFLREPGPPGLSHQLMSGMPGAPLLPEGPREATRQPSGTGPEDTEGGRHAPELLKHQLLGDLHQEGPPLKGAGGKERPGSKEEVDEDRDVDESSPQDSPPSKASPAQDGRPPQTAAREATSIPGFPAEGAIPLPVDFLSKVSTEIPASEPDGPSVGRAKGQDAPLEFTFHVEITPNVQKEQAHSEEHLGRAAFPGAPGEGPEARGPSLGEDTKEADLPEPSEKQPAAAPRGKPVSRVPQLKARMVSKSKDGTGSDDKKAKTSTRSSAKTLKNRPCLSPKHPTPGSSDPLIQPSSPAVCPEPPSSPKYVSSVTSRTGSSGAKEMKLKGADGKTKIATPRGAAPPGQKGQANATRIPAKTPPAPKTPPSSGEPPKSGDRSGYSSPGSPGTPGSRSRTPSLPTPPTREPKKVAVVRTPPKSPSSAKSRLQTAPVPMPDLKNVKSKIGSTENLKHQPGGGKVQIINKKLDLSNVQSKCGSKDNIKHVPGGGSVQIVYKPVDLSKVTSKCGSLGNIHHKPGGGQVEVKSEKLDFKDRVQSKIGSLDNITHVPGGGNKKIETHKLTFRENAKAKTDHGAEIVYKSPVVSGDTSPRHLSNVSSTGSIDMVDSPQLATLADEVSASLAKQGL
How it was run: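 Fibril formation assay: tau K18 P301L at 15 uM with trace Alexa 594 label, heparin inducer 20 uM, pH 7 sodium acetate buffer, 37 C for 6 hr; endpoint ThT signal.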
% is scaled to controls: 0 for no effect and ±100 for the full control effect; potency is read from the fitted curve at half-maximal effect; tags tell the direction and shape of the fitted curve.
Also: nearly all actives have a fitted effect of over 55% in size.

| SMILES | Potency | activity, negative = inhibition |
| --- | --- | --- |
| COc1ccccc1N1CCN(/N=C/c2cccc(OC)c2O)CC1 | inactive | – |
| Fc1ccc(-c2[nH]ncc2CN2CCN(c3ccc(F)cc3)CC2)cc1 | inactive | – |
| COC(=O)CCCC1=CC2=C(c3ccccc3)C(=O)C(C)(OC(=O)C3CCCC3)C(=O)C2=CN1CCCCO (stereo not given) | inconclusive: 11.2 µM [inhibitor, partial curve] | inactive: 14.7% [at 11.5 µM] |
| COc1ccc(NC(=O)CCSc2nc(-c3ccc(OC)cc3)cc(C(F)(F)F)n2)cc1 | inactive | – |
| CN1CCN(C(=O)/C(=C/c2ccccc2)c2ccccc2)CC1 | inactive | – |
| Cc1csc(Nc2ccc(Cl)cc2)[n+]1-c1ccc(Cl)cc1 | inconclusive: 14.1 µM [inhibitor, single point] | – |
| Cc1ccc(-c2nnnn2C2C/C(=N\NC(N)=S)C3OCC2O3)cc1 (stereo not given) | inactive | – |
| O=C(COc1ccc(F)cc1)OCc1cc(=O)n2nc(C3CCCCC3)sc2n1 | inactive | – |
| CN1C(=CC=C2C=C(I)C(=O)C(I)=C2)C(C)(C)c2ccccc21 | active: 2.24 µM | – |
| Cc1ccc(NC(=O)CN2C(=O)S/C(=C\c3cccn3-c3cccc(C(=O)O)c3)C2=O)c(C)c1 | inconclusive: 14.1 µM [inhibitor, partial curve] | – |
| Cc1onc(-c2c(F)cccc2Cl)c1C(=O)NCC1COc2ccccc2O1 (stereo not given) | inactive | – |
| CCOC(=O)c1c(C)[nH]c(CCC(=O)Nc2cc(Cl)ccc2OC)c1C | inconclusive: 12.6 µM [inhibitor, partial curve] | – |
| CCn1c(SCC(=O)C(C)(C)C)nnc1-c1cnccn1 | inactive | – |
| O=C(COc1ccc(-c2ccccc2)cc1)N/N=C/c1cc(O)ccc1Br | inconclusive: 1.12 µM [inhibitor, full curve] | – |
| C#CCOc1c(Br)cc(/C=N/O)cc1OCC | inactive | – |
| CCOC(=O)c1c(C)oc2ccc(N(C(=O)c3ccncc3)S(=O)(=O)c3ccc(CC)cc3)cc12 | inconclusive: 1.26 µM [inhibitor, partial curve] | – |
| CCCc1c(C(=O)NNc2ccc(C)cc2)cnn1-c1ccccc1 | inconclusive: 28.2 µM [inhibitor, single point] | – |
| CC[n+]1c(/C=C/C=C/N(C(C)=O)c2ccccc2)sc2ccccc21 | active: 11.2 µM | – |
| O=C1C(SCCO)=C(SCCO)C(=O)c2ccccc21 | active: 1.12 µM and active: 14.1 µM | – |
| CC(C)(C)c1ccc(-c2nc(C#N)c(NCc3ccncc3)o2)cc1 | inconclusive: 31.6 µM [inhibitor, single point] | – |
| C=CCOC(=O)C1=C[C@H](c2cn(C(C)=O)c3ccccc23)C[C@H](OCCCCO)O1 | inconclusive: 25.1 µM [inhibitor, single point] | – |
| COc1cc(C(c2c(C)[nH][nH]c2=O)c2c(C)[nH][nH]c2=O)ccc1OCc1ccc([N+](=O)[O-])cc1 | active: 10 µM | – |

| SMILES | Potency | activity, negative = inhibition |
| --- | --- | --- |
| N#Cc1nc(COc2ccccc2)oc1N1CCN(Cc2ccccc2)CC1 | inconclusive: 44.7 µM [inhibitor, single point] | – |
| Cn1c(=O)c(C(=O)COC(=O)c2cc(C(F)(F)F)nc3c(C(F)(F)F)cccc23)c(N)n(CC2CC2)c1=O | inconclusive: 3.55 µM [inhibitor, full curve] and inconclusive: 5.62 µM [inhibitor, full curve] | – |
| Cc1cc(C)c2sc(NC(=O)c3ccc(S(=O)(=O)N4CCCC4)cc3)nc2c1 | inactive | – |
| O=C1NC(=S)S/C1=C/c1ccc(Oc2cnccn2)cc1 | inconclusive: 14.1 µM [inhibitor, partial curve] | – |
| CC(C)(C)c1ccc(C(=O)NCCCN2CCN(CCCNC(=O)c3ccc(C(C)(C)C)cc3)CC2)cc1 | inconclusive: 39.8 µM [inhibitor, single point] | – |
| O=C(OCc1cccc(F)c1)c1ccc2c(=O)n3c(nc2c1)CCC3 | inactive | – |
| CCOc1ccc(NC(=S)Nc2ccc(OCC)cc2)cc1 | inconclusive: 2.82 µM [inhibitor, partial curve, poor fit] | – |
| O=C(Cn1nc(-c2ccccc2)ccc1=O)NCCN1CCN(c2cccc(Cl)c2)CC1 | inconclusive: 17.8 µM [inhibitor, partial curve] | – |
| CCCc1cc(=O)oc2cc3oc(C)c(C)c3cc12 | inconclusive: 8.91 µM [inhibitor, partial curve, poor fit] | – |
| CCC(CC)c1nn2c(=O)cc(COc3ccc(NC(=O)c4cccc(C)c4)cc3)nc2s1 | inconclusive: 0.794 µM [inhibitor, full curve] | – |
| CC(=O)O[C@H]1C2=CO[C@H](C)[C@H]3[C@H]4C5=C([C@H](O)[C@H]6O[C@@H]6C5=O)[C@H](O[C@H]4C)[C@@]23C(=O)[C@H]2O[C@@H]21 | inconclusive: 3.16 µM [inhibitor, partial curve] | – |
| COc1cccc(CNC(=O)c2cc(-c3ccc(Cl)cc3)n[nH]2)c1 | inconclusive: 17.8 µM [activator, partial curve, poor fit] | – |
| CC(=O)OC1CC(OC(C)=O)[C@]2(C)C(CC(O)[C@]3(C)C2CC[C@@]2(C)C(c4ccoc4)OC(=O)C4O[C@]432)C1(C)C (stereo not given in full) | inactive | – |
| CCOc1ccc(OCCCC(=O)Nc2nc3ccccc3[nH]2)cc1 | inconclusive: 17.8 µM [inhibitor, single point] | – |
| O=c1oc2ccccc2cc1-c1nnc(NCc2ccco2)s1 | inconclusive: 12.6 µM [inhibitor, partial curve] | – |
| C=CCN1C(=O)/C(=C2/Sc3ccc(OC)cc3N2C)SC1=Nc1ccc(OC)cc1 | inconclusive: 15.8 µM [inhibitor, single point] | – |
| N#C/C(=C\c1cccnc1)c1nc2ccccc2[nH]1 | inconclusive: 39.8 µM [inhibitor, partial curve, poor fit] | – |
| O=C(Nc1nc2c(s1)CCCC2)c1cc(-c2ccncc2)nc2ccccc12 | inconclusive: 28.2 µM [inhibitor, single point] | – |
| COc1cc2c(cc1OC)-c1cc(N3CCCCCC3)nc(=O)n1CC2 | inconclusive: 39.8 µM [inhibitor, single point] | – |
| COc1ccc(C(=O)Oc2ccc3oc(=O)sc3c2)cc1 | inactive | – |
| CN(C)S(=O)(=O)N(CC(=O)Nc1ccc(C(F)(F)F)cc1)c1ccccc1 | inactive | – |
| Cc1ccc(OCCSc2nc3ccc(NC(=O)c4cccs4)cc3s2)cc1 | inconclusive: 1.58 µM [inhibitor, full curve] | – |

| SMILES | Potency | activity, negative = inhibition |
| --- | --- | --- |
| CCOC(=O)C(C)n1cnc2c(nnn2Cc2ccc(Cl)cc2)c1=O (stereo not given) | inconclusive: 1 µM [inhibitor, single point] | – |
| CCNc1ccc(Br)cc(C(=O)/C=C/c2ccc(Cl)cc2)c1=O | active: 14.1 µM | – |
| C/C(=N\NC(=O)c1ccn(C)n1)c1ccc(NC(=O)C2CCCC2)cc1 | inactive | – |
| O=C(CSc1nc(C2CC2)nc2ccccc12)N1c2ccccc2Sc2ccccc21 | inconclusive: 44.7 µM [inhibitor, single point] | – |
| CCC(C(=O)OCC(=O)Nc1ccc(C(N)=O)cc1)c1ccccc1 (stereo not given) | inactive | – |
| COC(=O)c1[nH]c2cc(OC)ccc2c1NC(=O)CN1CCN(c2cccc(C)c2)C(C)C1 (stereo not given) | inconclusive: 28.2 µM [inhibitor, single point] | – |
| Cn1ncc(Cl)c1C(=O)NCc1ccco1 | inconclusive: 28.2 µM [inhibitor, partial curve, poor fit] | – |
| CC1CCN(C(=O)CSc2nnc(-c3cc4ccccc4cc3O)n2Cc2ccco2)CC1 | inconclusive: 28.2 µM [inhibitor, partial curve, poor fit] | – |
| CCOc1ccc(C2C(C#N)=C(N)SC(N)=C2C#N)c(OCC)c1 | inconclusive: 20 µM [inhibitor, partial curve] | – |
| CC(=O)c1ccc(N2CCN(C(=O)c3cn(C)c(=O)c4c3c3ccccc3n4C)CC2)cc1 | inconclusive: 25.1 µM [inhibitor, partial curve] | – |
| Cc1cc2nc3c(=O)[nH]c(=O)nc-3n(CC(O)C(O)C(O)COP(=O)(O)O)c2cc1C (stereo not given) | inconclusive: 25.1 µM [activator, partial curve] | – |
| Cc1ccc(-n2c(=O)c3c(c4cc(C)ccc4n3C)n(CC(=O)Nc3ccc(F)cc3)c2=O)cc1 | inactive | – |
| CCS(=O)(=O)N1CCc2cc(C(=O)Nc3ccc(Br)cc3F)ccc21 | inconclusive: 28.2 µM [inhibitor, partial curve] | – |
| O=c1nc(Nc2ccc(Br)cc2)sc2ccc([N+](=O)[O-])cc12 | inconclusive: 3.55 µM [inhibitor, partial curve] | – |
| Cc1cc(NS(=O)(=O)c2ccc(NC(=O)COc3c(C)ccc(C)c3C)cc2)nc(C)n1 | inconclusive: 39.8 µM [inhibitor, single point] | – |
| COCC#Cc1ccc(C2C(C)CCC3C(=O)N4C(CCC(C)C4c4ccc(C#CCOC)cc4)C(=O)N32)cc1 (stereo not given) | – | inactive: -9.46% [at 11.5 µM] |
| Cc1ccc(C(=O)N/C(=C/c2ccc(-c3cc(C(F)(F)F)ccc3Cl)o2)C(=O)NCc2cccnc2)cc1 | inconclusive: 31.6 µM [inhibitor, partial curve] | – |
| COC(=O)c1nn(-c2ccc(-c3ccccc3)cc2)cc1O | inconclusive: 3.16 µM [inhibitor, partial curve] | – |
| CC1CCCCN1Cc1c(O)ccc2c(=O)c(-c3nc4ccccc4s3)c(N)oc12 (stereo not given) | inconclusive: 5.01 µM [inhibitor, full curve] | – |
| CN1/C(=C\C(=O)Nc2cccc(Cl)c2)C(C)(C)c2ccccc21 | inconclusive: 25.1 µM [inhibitor, partial curve] | – |
